Laboratory results from the supplement of paper PMC9334596.
Where “and” joins values, the source holds several entries; their conditions need not be identical. Equal values may be shown once. In all, about 5,300 compounds were measured (“PER2::LUC luminescence relative to vehicle control”: median about 0.96, highest 2% from about 1.3 on). The list shows a part of the results.

Tested on: mPer2Luc MEF
Experiment: PER2::LUC luminescence relative to vehicle control (fold of vehicle); higher = higher PER2::LUC reporter signal
Details: 10 µM
Procedure, shortened: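 Mouse embryonic fibroblasts carrying the mPer2Luc reporter were seeded at ~3000 cells per well in 384-well plates, 48 h before compounds from commercial libraries were added at 10 μM. Cells were grown in DMEM with 10% FBS at 37 °C and 5% CO2. Luminescence was read with the ONE-Glo luciferase assay system 24 h and 30 h after treatment, followed by an alamarBlue viability assay. The value is PER2::LUC luminescence as fold of vehicle control.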

SMILES | PER2::LUC luminescence (time after treatment 24 h) | PER2::LUC luminescence (time after treatment 30 h)
Oc1ccc([C@H]2Oc3cc(O)cc(O)c3C[C@H]2O)cc1 | 0.958 | 0.941
COc1cc(-c2oc3cc(O)cc(O)c3c(=O)c2O)ccc1O | 1.02 | 1.23
Cc1cc(Cn2nnc3c(-c4ccco4)nc(N)nc32)ccc1N | 0.986 | 0.986
Cc1cc(OCc2nc(-c3ccccc3Cl)cs2)ccc1CCC(=O)O | 1.11 | 1.28
O=C(Nc1cccc(C(=O)Nc2ccc(S(=O)(=O)O)c3cc(S(=O)(=O)O)cc(S(=O)(=O)O)c23)c1)Nc1cccc(C(=O)Nc2ccc(S(=O)(=O)O)c3cc(S(=O)(=O)O)cc(S(=O)(=O)O)c23)c1 | 1.01 | 0.936
COc1cc2nc(C3CC3)nc(N3CCN(c4ccccc4OC)CC3)c2cc1OC | 0.63 | 0.796
CNC(=O)c1cc(Oc2ccc(NC(=O)Nc3ccc(Cl)c(C(F)(F)F)c3)cc2)ccn1 | 0.556 and 0.486 | 0.816 and 0.513
CNC(=O)c1ccccc1Nc1cc(Nc2ccc(N3CCOCC3)cc2OC)ncc1C(F)(F)F | 0.532 | 0.485
CN1C(CCl)Nc2cc(Cl)c(S(N)(=O)=O)cc2S1(=O)=O (stereo not drawn) | 0.976 | 0.898
C=CC1=C(C(=O)O)N2C(=O)[C@@H](NC(=O)/C(=N\O)c3csc(N)n3)[C@H]2SC1 | 1.08 | 0.951
Nc1ncnc2c1nc(Br)n2C1OC2COP(=O)(O)O[C@@H]2C1O (stereo partly drawn) | 0.753 | 0.913
OCc1ccccc1O[C@@H]1O[C@H](CO)[C@@H](O)[C@H](O)[C@H]1O | 0.81 and 1.04 | 1.16 and 0.919
C[n+]1cc(NC(=O)c2cccc(C(=O)Nc3cc4ccccc4[n+](C)c3)n2)cc2ccccc21 | 0.697 | 0.604
CCCCCCCCCCCCC/C=C/[C@@H](O)[C@H](CO)NC(=O)CCCCC | 1.1 | 1.04
O=C1NC(O)CCN1[C@@H]1O[C@H](CO)[C@@H](O)[C@H]1O (stereo partly drawn) | 1.21 | 1.19
Ic1ccc(N2CCN(Cc3c[nH]c4ncccc34)CC2)cc1 | 1.29 and 0.924 | 1.01 and 0.827
C=C1CC[C@@H]2[C@](C)(CO)[C@H](O)CC[C@@]2(C)[C@@H]1C/C=C1/C(=O)OC[C@H]1O | 0.83 | 0.72
CC(=O)NS(=O)(=O)c1ccc(N)cc1 | 0.956 and 0.97 | 0.953 and 0.925
CCOC(=O)c1ccc(-n2cc(Cc3cnc(OCC)nc3)c(=O)nc2SCc2ccc(F)cc2)cc1 | 1.08 | 1.08
Cc1cn([C@H]2C=C[C@@H](CO)O2)c(=O)[nH]c1=O | 0.963 | 0.912
Nc1nc(Cl)nc2c1ncn2[C@@H]1O[C@H](CO)[C@@H](O)[C@H]1O | 1.02 | 1.07
O=c1c(O[C@@H]2O[C@H](CO)[C@H](O)[C@H](O)[C@H]2O)c(-c2ccc(O)c(O)c2)oc2cc(O)cc(O)c12 | 0.946 | 0.735
Cc1c(-c2cnccn2)ssc1=S | 0.829 | 0.988
NO | 1.02 | 0.884
C(=C\c1ccccc1)/CN1CCN(C(c2ccccc2)c2ccccc2)CC1 | 0.857 | 0.838

SMILES | PER2::LUC luminescence (time after treatment 24 h) | PER2::LUC luminescence (time after treatment 30 h)
COc1cccc(Nc2ncnn3ccc(CN4CC[C@@H](N)[C@H](O)C4)c23)c1 | 0.391 | 0.45
CCN(CC)CCNC(C(=O)OCCC(C)C)c1ccccc1 (stereo not drawn) | 0.814 and 0.816 | 1.07 and 0.796
C[C@@H]1C[C@H]2[C@@H]3CCC4=CC(=O)C=C[C@]4(C)[C@@]3(F)[C@@H](O)C[C@]2(C)[C@@]1(O)C(=O)COP(=O)(O)O | 0.739 | 1.02
Cc1cccc(CC(=O)N2CCc3c2ccc(-c2cn(C)c4ncnc(N)c24)c3F)n1 | 1.24 | 1.07
Nc1cc(Cl)c(NC2=NCCN2)c(Cl)c1 | 1.02 | 1.08
CC(C)OC(=O)OCOP(=O)(CO[C@H](C)Cn1cnc2c(N)ncnc21)OCOC(=O)OC(C)C | 1.17 | 1.05
CC(C)CCNC(=O)c1ccc2c(c1)nc(Nc1n[nH]c3ccc(-c4ccccc4OC(F)(F)F)cc13)n2C1CCC(O)CC1 (stereo not drawn) | 0.526 | 0.553
Cc1ccc(NC(=O)c2cccc(C(C)(C)C#N)c2)cc1Nc1ccc2ncn(C)c(=O)c2c1 | 0.564 | 0.556
OCCN(CCO)c1nc(N2CCCCC2)c2nc(N(CCO)CCO)nc(N3CCCCC3)c2n1 | 0.969 and 0.694 | 0.924 and 1.03
CC(C)(C)OC(=O)N1CCC(OCc2nc(-c3ccncc3)no2)CC1 | 0.986 | 0.843
CC[C@H](CO)Nc1nc(NCc2ccccc2)c2ncn(C(C)C)c2n1 | 0.505 | 0.942
Cc1nc(C(=O)N2CCC[C@H]2Cc2nnc(-c3ccccc3)o2)c(-c2ccccc2F)s1 | 1.06 | 0.881
CN(c1nccc(=O)[nH]1)C1CCN(c2nc3ccccc3n2Cc2ccc(F)cc2)CC1 | 1.07 | 1.45
CCS(=O)(=O)N1CCC[C@@H]2CN3CCc4cc(OC)ccc4[C@@H]3C[C@@H]21 | 0.924 | 0.903
O=C(O)c1ccccc1C(=O)Nc1ccc(S(=O)(=O)Nc2nccs2)cc1 | 0.993 | 0.892
C[N+](C)(C)CC(=O)O | 1.09 and 0.92 | 0.992 and 0.944
C[C@]12CC[C@@H]3c4ccc(OC(=O)c5ccccc5)cc4CC[C@H]3[C@@H]1CC[C@@H]2O | 0.887 | 1.01
Cc1ccc(F)c(NC(=O)Nc2ccc(-c3cccc4[nH]nc(N)c34)cc2)c1 | 1.3 | 1.05
CN1CCN(C(c2ccccc2)c2ccccc2)CC1 | 0.813 and 0.808 | 0.84 and 0.755
CC(C)OC(=O)C1=CN(C(=O)c2ccc(F)c(F)c2)CC(C)(C)c2c1[nH]c1ccccc21 | 1.23 | 1.24
COC(=O)[C@@H]1CC2=CC(=O)CC[C@]2(C)[C@@]23O[C@@H]2C[C@@]2(C)[C@@H](CC[C@@]24CCC(=O)O4)[C@H]13 | 0.858 | 0.96
C[C@H](CCC(=O)NCCS(=O)(=O)O)[C@H]1CC[C@H]2[C@@H]3CC[C@@H]4C[C@H](O)CC[C@]4(C)[C@H]3C[C@H](O)[C@]12C | 0.992 | 0.915
C[C@@H](O)[C@@H]1NC(=O)[C@H](CCCCN)NC(=O)[C@@H](Cc2c[nH]c3ccccc23)NC(=O)[C@H](Cc2ccccc2)NC(=O)[C@@H](NC(=O)[C@H](N)Cc2ccccc2)CSSC[C@@H](C(=O)N[C@H](CO)[C@@H](C)O)NC1=O | 1.04 | 1.04
C[C@H](CCC(=O)O)[C@H]1CC[C@H]2[C@@H]3[C@@H](O)C[C@@H]4C[C@H](O)CC[C@]4(C)[C@H]3CC[C@]12C | 0.988 | 1.06
